The campaign covered roughly 52,000 compounds. About 1,700 (3.3%) were called active. Rule as the data show it: active = survival mostly below about 52% (no sharp cut-off); inactive = mostly above about 56%. The list shows a part of the results.

In this test the test system is Wild type. The test is described as follows: S. aureus survival, RN4220 and DeltatarO strains – OD600, teichoic acid synthesis inhibitors, primary screen (AID 463173). Conditions: S. aureus RN4220 wild type/DeltatarO growth, OD600, 18 h, stronger effect = lower value, screened at 18.75 µg/mL (by protocol).
As to `CC(C)N(Cc1ccccc1)C(=O)Cn1ncc2c3ccccc3n(Cc3ccccc3)c2c1=O`, the survival is inactive: 96%.
`COc1ccc(CCNC(=O)c2cn(C)c3ccc(S(=O)(=O)N4CCOCC4)cc3c2=O)cc1OC`: the survival was inactive: 90%.
For `Cc1nn(-c2ccc(Cl)cc2)c2nc(-c3cccnc3)cc(C(F)(F)F)c12`, the survival is inactive: 80%.
Under `COc1ccc(NC(=O)C2CCN(S(=O)(=O)c3c(C)noc3/C=C/c3cccs3)CC2)cc1` stands inactive: 87%.
In the case of `Cc1cccc(Cn2c(SCc3ccc(C(=O)NC4CCCC4)cc3)nc3cccnc32)c1`, the survival is inactive: 148%.
For the compound `O=C(CSc1ccccc1)NCc1ccc2c(c1)CCN2C(=O)c1ccccc1`, the survival is inactive: 57%.
The value for `COc1cccc(-c2noc(CCCC(=O)NCc3ccco3)n2)c1` was inactive: 117%; that for `Cc1ccccc1OCCCCn1c(CCNC(=O)C(C)(C)C)nc2ccccc21` was inactive: 65%.
With `COc1ccc(OC)c(S(=O)(=O)NCC(c2ccco2)S(=O)(=O)c2ccccc2)c1` (configuration not stated), the survival was inactive: 75%.
The value for `N#Cc1ccc(NC(=O)CCC(=O)O)cc1` was inactive: 99%; that for `COc1ccc(OC)c(CNC(=O)c2ccc(NC(=O)c3nsc4ccccc34)cc2)c1` was inactive: 87%; that for `COC(=O)c1ccccc1NC(=O)c1ccc(-c2nc(CSc3ccc(C)cc3)c(C)o2)cc1` was inactive: 81%.
With `CN(Cc1ccccc1)C(=O)CCS(=O)(=O)c1ccc2c(c1)oc(=O)n2C`, the survival was inactive: 70%.
Take `CCn1cc(S(=O)(=O)c2cccc(Cl)c2)c(=O)c2cc(F)c(N3CCN(C)CC3)cc21`: the survival is inactive: 56%.
Under `COc1ccccc1N1CCN(Cc2nnc(-c3ccccc3C)o2)CC1` stands inactive: 82%.
Under `O=S(=O)(Nc1ccc(C(F)(F)F)cc1)c1ccc2c(c1)OCCO2` stands inactive: 68%.
Consider `COCCCn1c(=O)c2sccc2n2c(CCCC(=O)Nc3cccc(C(F)(F)F)c3)nnc12`, for which the survival was inactive: 87%.
The value for `O=C(NCCCc1nc2ccccc2n1Cc1cccc(Cl)c1)C1CCCCC1` was inactive: 97%.
As to `O=C(c1ccc2c(c1)N(Cc1ccc(Cl)cc1)C(=O)c1ccccc1S2=O)N1CCC(Cc2ccccc2)CC1` (configuration not stated), the survival is inactive: 86%.
The value for `CCOC(=O)c1cccc(NC(=O)c2ccc3nc(CCc4ccccc4)oc3c2)c1` was inactive: 82%; that for `Nc1cc(N)nc(SCC(=O)c2ccccc2)n1` was inactive: 108%; that for `Cc1ccccc1OCC(=O)Nc1ccc2nc(SCC(N)=O)sc2c1` was inactive: 77%.
The value for `COC(=O)c1cn(CC(=O)NC2CCCCCC2)c2ccccc12` was inactive: 114%.
Under `CCCCOC(=O)c1ccc(NC(=O)c2csnn2)cc1` stands inactive: 79%.
Turning to `CC1=C(C(=O)Nc2ccccc2)C(c2ccc[nH]2)n2ncnc2N1` (configuration not stated), the survival is active: -3%.
The value for `COC(=O)c1ccc(NC(=O)C(=O)NCC(c2cccnc2)N2CCc3ccccc32)cc1` (configuration not stated) was inactive: 47%; that for `Cc1cccc(C)c1NC(=O)CSc1nc2ccccc2c2nc(CCc3c(C)n[nH]c3C)nn12` was inactive: 69%.
For the compound `CCCOc1ccc(C(=O)Nc2ccc3oc(-c4ccc(N(C)C)cc4)nc3c2)cc1`, the survival was inactive: 91%.
Under `Cc1c(NC(=O)c2sc3ccccc3c2Cl)cccc1-c1nc2ccccc2o1` stands inactive: 84%; under `Cc1c(Cl)cccc1NC(=O)Cn1nnc(-c2nc(-c3ccccc3)no2)c1N`, inactive: 55%; under `Cn1c(C(=O)N(Cc2ccccc2)C(C)(C)C)cc2sccc21`, inactive: 109%.
Under `CCC(C(=O)NC1CCCC1)N(C(=O)Cn1nnc(-c2cccs2)n1)c1cnc2ccccc2c1` (configuration not stated) stands inactive: 106%.
As to `O=C1OCc2ccc(NC(=O)C3CCCCC3)cc21`, the survival was inactive: 109%.
Turning to `COc1ccc(S(=O)(=O)N(Cc2cc3cc4c(cc3[nH]c2=O)OCCO4)C2CCCC2)cc1`, the survival is inactive: 106%.
Under `CCn1cc(C(=O)NCCc2ccc(C)cc2)c(=O)c2cc(S(=O)(=O)N3CCC(C)CC3)ccc21` stands inactive: 76%; under `CCCOc1ccc(OC(=O)c2cn(-c3ccc(OC)cc3)c(=O)c3ccccc23)cc1`, inactive: 74%; under `COc1cc(NC(=O)c2nc3ccccc3n(C)c2=O)cc(OC)c1OC`, inactive: 73%.
Under `COc1cccc(-c2nn3c(=O)cc(CN4CCN(C(=O)/C=C/c5ccccc5)CC4)nc3s2)c1` stands inactive: 80%; under `COc1ccc(NC(=O)Cn2nc(C(F)(F)F)c3c2CCCC3)cc1OC`, inactive: 64%; under `CCOc1ccccc1NC(=O)C1=C(C)Nc2ncnn2C1c1cccs1` (configuration not stated), inactive: 32%.
The value for `Cc1cccc(N2CCN(C(=O)c3ccc4c(Cl)c5c(nc4c3)CCCC5)CC2)c1C` was inactive: 88%.
Take `O=C(OCc1cc(=O)n2nc(C3CC3)sc2n1)c1ccccc1Cl`: the survival is inactive: 77%.
As to `COc1ccc(CNC(=O)C2=CC(c3cccc(OC)c3)=NS(=O)(=O)N2C)cc1`, the survival was inactive: 82%.
Under `CC(=O)c1cccc(NC(=O)c2cc(C)nc3c2c(C)nn3-c2cccc(Cl)c2C)c1` stands inactive: 69%.
Under `Cc1ccc(CCNC(=O)CCS(=O)(=O)c2cc3c(cc2Cl)NC(=O)CO3)cc1` stands inactive: 91%; under `CC(C)NC(=O)CN1C(=O)c2cccnc2Sc2ccccc21`, inactive: 82%; under `Cc1ccc(-c2nc(-c3cc4cccc(OCc5ccccc5F)c4oc3=O)no2)cc1`, inactive: 69%.
Regarding `COC(=O)c1c(-c2ccc(Cl)cc2)noc1N1CCN(c2ccc(F)cc2)CC1`, the survival is inactive: 68%.
As to `CC(C)c1cc(C(=O)NCc2ccccc2)no1`, the survival is inactive: 79%.
Consider `CCOc1ccc(CNC(=O)CCS(=O)(=O)c2ccc3c(c2)oc(=O)n3C)cc1`, for which the survival is inactive: 75%.
Turning to `COc1ccc(NC(=O)c2csnn2)cc1`, the survival was inactive: 111%.
The value for `Cc1ccc(NC(=O)Cn2c(=O)n(Cc3ccc(C(=O)NCc4ccc5c(c4)OCO5)cc3)c(=O)c3ccccc32)cc1` was inactive: 98%; that for `COc1ccccc1N1CCN(c2csc3ccccc3c2=O)CC1` was inactive: 80%.
For `Cc1cccc(C)c1Nc1c(-c2ccsc2)nc2cccc(C)n12`, the survival is inactive: 32%.
The value for `COc1cccc(NC(=O)Cn2c(-c3nonc3N)nc3ccccc32)c1` was inactive: 103%.
Under `Cc1cccc(NC(=O)N2CCN3CCCCC3C2)c1C` (configuration not stated) stands inactive: 68%; under `COc1cc(NC(=O)CCS(=O)(=O)c2ccc3c(c2)n(C)c(=O)c(=O)n3C)cc(OC)c1`, inactive: 93%.

The values above are taken from PubChem BioAssay AID463173 (ICCB-Longwood Screening Facility, Harvard Medical School, 2010).
